Reference: the supplement of paper PMC12067230
The data scatter; read single values as rough.

Experiment: amyloid nucleation score relative to library mode (yeast Sup35 reporter selection) (log enrichment difference); higher = more amyloid nucleation; sequences are the first 22 residues of the Bri2 peptide extended by up to 12 random residues
Conditions: random library (experiment): 1;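 active = nucleation score significantly above 0 at FDR 0.05; inactive = not significantly above 0 or absent from output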
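Also: [psi-pin-] Saccharomyces cerevisiae expressing SupN fusions, induced by 100 µM Cu2SO4, selected 7 d at 30 °C without adenine and uracil, scored by deep sequencing of output versus input.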

Sequence | amyloid nucleation score
EASNCFAIRHFENKFAVETLICLFAFWRWRLVWL | inactive
EASNCFAIRHFENKFAVETLICLCYCVSETRSMP | 5.39
EASNCFAIRHFENKFAVETLICMLVLRVATAVTK | inactive
EASNCFAIRHFENKFAVETLICGGSVARPCRVRG | inactive
EASNCFAIRHFENKFAVETLICLGNYVDCCGVWG | 3.31
EASNCFAIRHFENKFAVETLICGHRTLQKGRCAV | -0.809
EASNCFAIRHFENKFAVETLICTGLGAW | 5.05
EASNCFAIRHFENKFAVETLICYCKEAYVAPSMC | inactive
EASNCFAIRHFENKFAVETLICVDYQKRGCPRSH | inactive
EASNCFAIRHFENKFAVETLICGLVGERRGLHGR | inactive
EASNCFAIRHFENKFAVETLICQARVQTKRSRLE | inactive
EASNCFAIRHFENKFAVETLICCPKRLSWECGQR | 3
EASNCFAIRHFENKFAVETLICPHDPSKRNMNAA | inactive
EASNCFAIRHFENKFAVETLICECVASVMEGALG | inactive
EASNCFAIRHFENKFAVETLICIRYMPGRLGVFT | 2.04
EASNCFAIRHFENKFAVETLICEVR | inactive
EASNCFAIRHFENKFAVETLICLW | 8.26
EASNCFAIRHFENKFAVETLICESSSRSVMSVWW | -0.227
EASNCFAIRHFENKFAVETLICTDAQRGVRERPV | inactive
EASNCFAIRHFENKFAVETLICGCRRSYVRAGWR | inactive
EASNCFAIRHFENKFAVETLICEW | inactive
EASNCFAIRHFENKFAVETLICHLLTERHANRAR | 0.458
EASNCFAIRHFENKFAVETLICRPHGGMCQTARL | inactive
EASNCFAIRHFENKFAVETLICLSLGYRYGVKAL | inactive
EASNCFAIRHFENKFAVETLICRECPGHVDRNWL | inactive

Sequence | amyloid nucleation score
EASNCFAIRHFENKFAVETLICLCGWRWHTQVPY | inactive
EASNCFAIRHFENKFAVETLICFLFQSGQYRSTA | 3.91
EASNCFAIRHFENKFAVETLICDGLWSMCVSPGS | 1.6
EASNCFAIRHFENKFAVETLICLVVRYWNFKLTE | -0.295
EASNCFAIRHFENKFAVETLICRWYF | inactive
EASNCFAIRHFENKFAVETLICKGTAGWL | inactive
EASNCFAIRHFENKFAVETLICFPTWRVMNEIVS | inactive
EASNCFAIRHFENKFAVETLICYHVISAYDRGWG | inactive
EASNCFAIRHFENKFAVETLICWVC | 5.67
EASNCFAIRHFENKFAVETLICGWVEAKLVWACR | inactive
EASNCFAIRHFENKFAVETLICLNVGISLFGVYV | inactive
EASNCFAIRHFENKFAVETLICIYGLDCLLLL | -0.179
EASNCFAIRHFENKFAVETLICLRNNVFRFPYM | inactive
EASNCFAIRHFENKFAVETLICLHVWRLIPMVRH | inactive
EASNCFAIRHFENKFAVETLICTDEGWLWLHCQL | inactive
EASNCFAIRHFENKFAVETLICDPVLL | -0.595
EASNCFAIRHFENKFAVETLICKQWSSTTILFVS | inactive
EASNCFAIRHFENKFAVETLICCCWSTGLQDQVR | 6.37
EASNCFAIRHFENKFAVETLICFRIRMGRLKMVT | 0.165
EASNCFAIRHFENKFAVETLICLNRTFCPRCSDT | 5.54
EASNCFAIRHFENKFAVETLICPVKVNMEVSHRC | 2.73
EASNCFAIRHFENKFAVETLICVRIRGWRSWEWR | 6.74
EASNCFAIRHFENKFAVETLICFCCQSNFRYPSF | 6.38
EASNCFAIRHFENKFAVETLICEMGITIWFRGYL | inactive
EASNCFAIRHFENKFAVETLICLNTGWGGCGCRS | 8.28

Same assay, conditions: random library (experiment): 2

Sequence | amyloid nucleation score
EASNCFAIRHFENKFAVETLICRESFSRQMHDMC | 3.96
EASNCFAIRHFENKFAVETLICGVYQGRMEHCGI | 1.28
EASNCFAIRHFENKFAVETLICVRSYYSTSCRG | inactive
EASNCFAIRHFENKFAVETLICTAFNTNDHGERE | inactive
EASNCFAIRHFENKFAVETLICVSPSSPRSHSDA | inactive
EASNCFAIRHFENKFAVETLICQEEGQVCAKCR | inactive
EASNCFAIRHFENKFAVETLICWPDLPCYDWGWC | 6.07
EASNCFAIRHFENKFAVETLICLFVVFNYNLCSR | inactive
EASNCFAIRHFENKFAVETLICLHYVVCHGLSVT | inactive
EASNCFAIRHFENKFAVETLICTWERCTTKDAAG | inactive
EASNCFAIRHFENKFAVETLICYLKVSYRGMVNL | inactive
EASNCFAIRHFENKFAVETLICGMRIINWIIL | inactive
EASNCFAIRHFENKFAVETLICLLWIGHL | inactive
EASNCFAIRHFENKFAVETLICTRAKMRDLWLMS | inactive
EASNCFAIRHFENKFAVETLICMEYLCSNSEAKH | 1.71
EASNCFAIRHFENKFAVETLICNLSVITMTEFAW | inactive
EASNCFAIRHFENKFAVETLICPRGTRRMRGSWS | inactive

Sequence | amyloid nucleation score
EASNCFAIRHFENKFAVETLICPTFVR | -0.779
EASNCFAIRHFENKFAVETLICGYFHINACNKFR | 4.61
EASNCFAIRHFENKFAVETLICLSGMGHSRGLWK | 3.85
EASNCFAIRHFENKFAVETLICGRWQYVLVLID | inactive
EASNCFAIRHFENKFAVETLICCIFSNVWGEDLC | 8.27
EASNCFAIRHFENKFAVETLICAPNILLNHEGLN | 4.91
EASNCFAIRHFENKFAVETLICNILKMRMVMLRF | inactive
EASNCFAIRHFENKFAVETLICHSCDLRSMRSGE | 1.15
EASNCFAIRHFENKFAVETLICFRHAFYADNSVI | 1.65
EASNCFAIRHFENKFAVETLICGMSFMGVRCYRE | inactive
EASNCFAIRHFENKFAVETLICKMFGRNYLSFRW | inactive
EASNCFAIRHFENKFAVETLICFIGYVNGSGCCE | 7.18
EASNCFAIRHFENKFAVETLICLKCYIWSFTTTF | inactive
EASNCFAIRHFENKFAVETLICKLGE | inactive
EASNCFAIRHFENKFAVETLICRFQHPY | -0.278
EASNCFAIRHFENKFAVETLICNDLNTSILSNQM | 4.45
EASNCFAIRHFENKFAVETLICVRV | inactive

Same assay, conditions: random library (experiment): 3

Sequence | amyloid nucleation score
EASNCFAIRHFENKFAVETLICFDMAVWKEEWVM | inactive
EASNCFAIRHFENKFAVETLICARKYAWHLRPCE | 0.454
EASNCFAIRHFENKFAVETLICGPDTTERRGSGR | inactive
EASNCFAIRHFENKFAVETLICGRCAMECRPGPE | inactive
EASNCFAIRHFENKFAVETLICRLTVC | inactive
EASNCFAIRHFENKFAVETLICQRERDN | inactive
EASNCFAIRHFENKFAVETLICEGYLRAA | inactive
EASNCFAIRHFENKFAVETLICCLH | 4.95
EASNCFAIRHFENKFAVETLICELAKAVTRSR | inactive
EASNCFAIRHFENKFAVETLICTLSVSTPRCRRV | inactive
EASNCFAIRHFENKFAVETLICHSPGTYRINQAG | inactive
EASNCFAIRHFENKFAVETLICVWLVSSLAVEQS | inactive
EASNCFAIRHFENKFAVETLICIELTLGVTMIWP | inactive
EASNCFAIRHFENKFAVETLICHNGPLKCSGSRL | inactive
EASNCFAIRHFENKFAVETLICVPRR | inactive
EASNCFAIRHFENKFAVETLICLCLPAGRRRPGG | 6.96
EASNCFAIRHFENKFAVETLICVFTFGVRWVCGR | inactive
EASNCFAIRHFENKFAVETLICLWVRSLWMRPDA | inactive

Sequence | amyloid nucleation score
EASNCFAIRHFENKFAVETLICRLFECKV | inactive
EASNCFAIRHFENKFAVETLICVRYLSAVGFMLH | inactive
EASNCFAIRHFENKFAVETLICVGSSYRVNRAYI | inactive
EASNCFAIRHFENKFAVETLICLVSSISSTELSG | inactive
EASNCFAIRHFENKFAVETLICRWRLGTVRAVC | 0
EASNCFAIRHFENKFAVETLICGDLHHFRHVF | inactive
EASNCFAIRHFENKFAVETLICRRK | inactive
EASNCFAIRHFENKFAVETLICKQAVMELSGAG | inactive
EASNCFAIRHFENKFAVETLICPRLTVGRGEMRP | inactive
EASNCFAIRHFENKFAVETLICEFACIGIELC | 6.96
EASNCFAIRHFENKFAVETLICLCEKVLVRCVKG | inactive
EASNCFAIRHFENKFAVETLICKRAGTYDPCSMR | inactive
EASNCFAIRHFENKFAVETLICWAWF | 8.34
EASNCFAIRHFENKFAVETLICLGMM | 6.4
EASNCFAIRHFENKFAVETLICYGFFVA | 6.28
EASNCFAIRHFENKFAVETLICMGPH | 3.35
EASNCFAIRHFENKFAVETLICGCV | 4.05
